For 42 sequences, binding signal results are on record in article PMC7819943, “Rice protein-binding microarrays: a tool to detect cis-acting elements near promoter regions in rice”.

The other results are listed elsewhere or left out.

For this assay, the target named is T1, OsWOX13 (Oryza sativa, UniProt Q5QMM3 1-267).
T1 sequence: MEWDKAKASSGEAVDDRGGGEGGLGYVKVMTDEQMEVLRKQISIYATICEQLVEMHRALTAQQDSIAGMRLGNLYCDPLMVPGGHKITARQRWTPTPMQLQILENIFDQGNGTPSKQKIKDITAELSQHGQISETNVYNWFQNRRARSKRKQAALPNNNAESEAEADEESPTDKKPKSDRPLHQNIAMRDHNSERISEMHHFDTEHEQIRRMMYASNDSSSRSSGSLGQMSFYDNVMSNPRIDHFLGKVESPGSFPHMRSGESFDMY
Description: protein-binding microarray (RPBM); PBS, 2% BSA, 51.3 ng/ul salmon testes DNA, 50 uM zinc acetate, 200 nM TF, 25 C, 1 h; high values mean tight binding. The conditions noted are these: protein: recombinant; tags: N-terminal polyhistidine and DsRed monomer fusion (pET32a); label: CyDye5-dUTP incorporated in the synthesized complementary strand; 3' TTTTT single-stranded linker to array surface; dsDNA, one strand shown. The method, boiled down:
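The binding signal is fluorescence intensity per feature, in arbitrary units, read on an Axon 4000B scanner. Polyhistidine- and DsRed-tagged transcription factors (N-terminal fusions) from E. coli BL21-CodonPlus were purified on Ni–NTA and applied at 200 nM for 1 h at 25 °C to a double-stranded, BSA-blocked custom Agilent array in buffer with 50 µM zinc acetate.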
On to “TAGACAAGGAATGACACAGATAATTGTTACCCTGGAAGCACGGAGTCACCTAGTGCAG”, for which the binding signal was 3760 fluorescence intensity (a.u.). For the sequence “TCTAGGTATTACTCTATTTAAATTGGAATAAAGGCTCATTCGGAGTCACCTAGTGCAG”, the binding signal is 3440 fluorescence intensity (a.u.). With “TTAACTAGTTACTTTGTTTAATTGATATAATTCTATTTACCGGAGTCACCTAGTGCAG”, the binding signal is 6070 fluorescence intensity (a.u.).

For the sequence “ATGTACTTAATTCAATTTGTCAAAAGAATTATGTATCCCTCGGAGTCACCTAGTGCAG”, the binding signal was 3990 fluorescence intensity (a.u.). In the case of “ATAGGTATTAATGAATTTAGACATATGGAGTACTTGGCAGCGGAGTCACCTAGTGCAG”, the binding signal was 4130 fluorescence intensity (a.u.).

With “AAATAAATTAAAATCCCATCATTAATTAGTAATCTTTACGCGGAGTCACCTAGTGCAG”, the binding signal was 37500 fluorescence intensity (a.u.). Take “ATTGACGAAGTTGACTAGAAACCACTGAGGCCATTTGGATCGGAGTCACCTAGTGCAG”: the binding signal was 4650 fluorescence intensity (a.u.). For “GCATGATGGAGATTCTAATCCAAGGGAAACAACAATTAGACGGAGTCACCTAGTGCAG”, the binding signal is 5340 fluorescence intensity (a.u.). For the sequence “CTTAATTGTTCACCGATTAAGGGTCACAAATTAGATTCGGCGGAGTCACCTAGTGCAG”, the binding signal is 39600 fluorescence intensity (a.u.). Regarding “TAAATTTAATCTAATGGTGTAAAATAATGGGTCCACAAATCGGAGTCACCTAGTGCAG”, the binding signal is 4200 fluorescence intensity (a.u.). As to “ACATGATGATTGATGAATGATCTAATCAACCCAGTCACATCGGAGTCACCTAGTGCAG”, the binding signal was 48300 fluorescence intensity (a.u.). As for “CGGATTCCAATCAAATTTGGACCCGCCAAATGCACTCGGACGGAGTCACCTAGTGCAG”, the binding signal is 17900 fluorescence intensity (a.u.). For the sequence “CTTTGTTCTGATTAATTACAAGTTACTAGTATATCCTAGGCGGAGTCACCTAGTGCAG”, the binding signal is 22200 fluorescence intensity (a.u.). “CCAACGAATCAACCCAGAAGTTGGTGGTAGAATTAACTAACGGAGTCACCTAGTGCAG”: the binding signal was 6720 fluorescence intensity (a.u.). As to “AACTTAATTTGATAAGAAAATTTAGTGGAGTCACCACAAGCGGAGTCACCTAGTGCAG”, the binding signal is 44100 fluorescence intensity (a.u.). Take “CAGACCAGGAATGATTATCACATTGCAGTGAGTTCTCATTCGGAGTCACCTAGTGCAG”: the binding signal was 3670 fluorescence intensity (a.u.).

Regarding “CAGCATGACAGATTGCCAGTTAGCCGGCTGATATAGTTCTCGGAGTCACCTAGTGCAG”, the binding signal is 29600 fluorescence intensity (a.u.). Turning to “AATAATCTAATCATCCTTATCCTCTCCTCTCCACCACTCACGGAGTCACCTAGTGCAG”, the binding signal was 5620 fluorescence intensity (a.u.). For “AATTCTGTGATTAGCGGGTGCTTTTCGAATGGATGGCATGCGGAGTCACCTAGTGCAG”, the binding signal is 29200 fluorescence intensity (a.u.).

In the case of “GTTTTATTAGGTAAGTGTTTGATTGGTTGTTAGCCACACTCGGAGTCACCTAGTGCAG”, the binding signal is 12800 fluorescence intensity (a.u.). In the case of “GGTCGCGGTCAATTTATATAATTAATTGCTAATTAATCACCGGAGTCACCTAGTGCAG”, the binding signal was 39700 fluorescence intensity (a.u.). With “ATTAACACTTACACTTGATTAATTAAGTTTTAATCATTTTCGGAGTCACCTAGTGCAG”, the binding signal is 16900 fluorescence intensity (a.u.). Regarding “GGAAAGACAGATTGAAGAAGCTGGGGTTCAAACCCAGGATCGGAGTCACCTAGTGCAG”, the binding signal is 10300 fluorescence intensity (a.u.). As for “GATCATACAGGTTAATTGCGCATGGCACATCCAACGGTACCGGAGTCACCTAGTGCAG”, the binding signal is 5980 fluorescence intensity (a.u.). “TTACGTAATTATAATTTATTTTGTTATGGGTTGTTTTATCCGGAGTCACCTAGTGCAG”: the binding signal is 43100 fluorescence intensity (a.u.). “CGTTGACATGGACGAGTTCGAGGAGAACGGTGGTGTGGTGCGGAGTCACCTAGTGCAG”: the binding signal is 7170 fluorescence intensity (a.u.).

Turning to “GCAAATTTAAATCACATCAACTTATCTCTACTACTTTAAACGGAGTCACCTAGTGCAG”, the binding signal is 14600 fluorescence intensity (a.u.). For the sequence “AATTTCACATAGATGATTGAACAAATAATTTCTCAGTGTACGGAGTCACCTAGTGCAG”, the binding signal is 31200 fluorescence intensity (a.u.).

Consider “TATGTAGGCTATGATTGAATGCCACAATATTGCAATGTCACGGAGTCACCTAGTGCAG”, for which the binding signal is 12900 fluorescence intensity (a.u.). The same measure for “ACTCAAATTTAAATTTGCAATATAAAATTTGAAAACTTTCCGGAGTCACCTAGTGCAG”: 14200 fluorescence intensity (a.u.); for “GCCACAATTAAATTTAAAAGATTTGTCTCGCAATTTACACCGGAGTCACCTAGTGCAG”: 7930 fluorescence intensity (a.u.). Take “TTACATCGTAACTGTAGTATAATTATATTATAACTTATAACGGAGTCACCTAGTGCAG”: the binding signal is 3150 fluorescence intensity (a.u.).

Take “CCTAATAAACGTTGAGTGTTATAATCAGCTGTAAACGATGCGGAGTCACCTAGTGCAG”: the binding signal was 5940 fluorescence intensity (a.u.). With “TTGACAAGTTAATTATTAATTAACAACAATATATTTAATTCGGAGTCACCTAGTGCAG”, the binding signal is 16300 fluorescence intensity (a.u.). As for “ACTCTTTACATCAGATAATGATTGGATAAACTCAATCAAACGGAGTCACCTAGTGCAG”, the binding signal is 11900 fluorescence intensity (a.u.). To “TAATTTATTTAATAATTACTAAGTAGTAAAACCTAGTATGCGGAGTCACCTAGTGCAG” belongs 3370 fluorescence intensity (a.u.); to “CAATCTGTTAGTAACATTAATTAATTGTGGATTAATAAAACGGAGTCACCTAGTGCAG”, 10200 fluorescence intensity (a.u.). For “AACATAGATAGATGATCCCCATGACCTTGCATGCCATTTCCGGAGTCACCTAGTGCAG”, the binding signal is 4080 fluorescence intensity (a.u.). Take “ATTTTGGTTTCTGTTATTGACAAAACAACTCACTCATTCCCGGAGTCACCTAGTGCAG”: the binding signal was 3480 fluorescence intensity (a.u.). Turning to “GAAATTACGTGAAACTTACATACAAGTTACAATGTAGTTACGGAGTCACCTAGTGCAG”, the binding signal is 3320 fluorescence intensity (a.u.). For the sequence “CGGGCTAAAATTTGAATTTCAGTTTAAATTATTTTAAAGTCGGAGTCACCTAGTGCAG”, the binding signal is 3690 fluorescence intensity (a.u.). As to “CATAGCAAATAACTAGATTAATAGACCGGCATGATTTTCTCGGAGTCACCTAGTGCAG”, the binding signal is 3810 fluorescence intensity (a.u.).
